# Assay results published in the supplement of paper PMC8728848.
# Some of the results follow.
# Key:
# Assay in all cases: glycan array binding signal (z-score within array); higher = stronger binding
# Details in all cases: glycan notation: IUPAC condensed, linker removed
# Fuc(a1-3)GlcNAc = target: Fuc(a1-3)GlcNAc
# Method in brief: (§1)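 Glycan array data came from 3228 arrays in the Consortium for Functional Glycomics database, and only arrays with an available protein sequence were kept. Glycan names were put into IUPAC-condensed notation, and columns mapping to the same glycan were averaged. The binding signal is a within-array Z-score, averaged across arrays of one protein sequence run at different concentrations or buffers and across linkers. A negative Z-score can be read as non-binding.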
# [1] = target: Fuc(a1-3)[Gal(b1-4)]Glc6S
# Method in brief: as §1
# [2] = target: Fuc(a1-3)[Gal(b1-4)]GlcNAc
# Method in brief: as §1
# [3] = target: Fuc(a1-3)[Gal(b1-4)]GlcNAc(b1-2)Man
# Method in brief: as §1
# [4] = target: Fuc(a1-3)[Gal(b1-4)]GlcNAc(b1-2)Man(a1-3)[Fuc(a1-3)[Gal(b1-4)]GlcNAc(b1-2)Man(a1-6)]Man(b1-4)GlcNAc(b1-4)GlcNAc
# Method in brief: as §1
# [5] = target: Fuc(a1-3)[Gal(b1-4)]GlcNAc(b1-2)Man(a1-3)[Fuc(a1-3)[Gal(b1-4)]GlcNAc(b1-2)Man(a1-6)]Man(b1-4)GlcNAc(b1-4)[Fuc(a1-6)]GlcNAc
# Method in brief: as §1
# [6] = target: Fuc(a1-3)[Gal(b1-4)]GlcNAc(b1-3)Gal(b1-3)[Fuc(a1-4)]GlcNAc
# Method in brief: as §1
# [7] = target: Fuc(a1-3)[Gal(b1-4)]GlcNAc(b1-3)Gal(b1-4)[Fuc(a1-3)]GlcNAc
# Method in brief: as §1
# [8] = target: Fuc(a1-3)[Gal(b1-4)]GlcNAc(b1-3)Gal(b1-4)[Fuc(a1-3)]GlcNAc(b1-3)Gal(b1-4)[Fuc(a1-3)]GlcNAc
# Method in brief: as §1
# [9] = target: Fuc(a1-3)[Gal(b1-4)]GlcNAc(b1-3)GalNAc
# Method in brief: as §1
# [10] = target: Fuc(a1-3)[Gal(b1-4)]GlcNAc(b1-6)GalNAc
# Method in brief: as §1
# [11] = target: Fuc(a1-3)[Gal(b1-4)]GlcNAc(b1-6)[Gal(b1-3)GlcNAc(b1-3)]Gal(b1-4)Glc
# Method in brief: as §1
# [12] = target: Fuc(a1-3)[Gal(b1-4)]GlcNAc6S
# Method in brief: as §1
# [13] = target: Fuc(a1-3)[Gal3S(b1-4)]Glc
# Method in brief: as §1
# [14] = target: Fuc(a1-3)[Gal3S(b1-4)]GlcNAc
# Method in brief: as §1
# [15] = target: Fuc(a1-3)[Gal3S(b1-4)]GlcNAc6S
# Method in brief: as §1
# [16] = target: Fuc(a1-3)[GalNAc(b1-4)]GlcNAc
# Method in brief: as §1
# [17] = target: Fuc(a1-3)[GalNAc(b1-4)]GlcNAc6S
# Method in brief: as §1
# Fuc(a1-4)GlcNAc = target: Fuc(a1-4)GlcNAc
# Method in brief: as §1
# Fuc(b1-3)GlcNAc = target: Fuc(b1-3)GlcNAc
# Method in brief: as §1
# Gal(a1-2)Gal = target: Gal(a1-2)Gal
# Method in brief: as §1
# Gal(a1-3)Gal = target: Gal(a1-3)Gal
# Method in brief: as §1
# Gal(a1-3)Gal(b1-3)GlcNAc = target: Gal(a1-3)Gal(b1-3)GlcNAc
# Method in brief: as §1
# [18] = target: Gal(a1-3)Gal(b1-3)GlcNAc(b1-2)Man
# Method in brief: as §1
# [19] = target: Gal(a1-3)Gal(b1-3)GlcNAc(b1-2)Man(a1-3)[Gal(a1-3)Gal(b1-3)GlcNAc(b1-2)Man(a1-6)]Man(b1-4)GlcNAc(b1-4)GlcNAc
# Method in brief: as §1
# [20] = target: Gal(a1-3)Gal(b1-3)GlcNAc(b1-3)GalNAc
# Method in brief: as §1
# [21] = target: Gal(a1-3)Gal(b1-3)GlcNAc(b1-6)GalNAc
# Method in brief: as §1
# [22] = target: Gal(a1-3)Gal(b1-3)[Fuc(a1-4)]GlcNAc(b1-2)Man(a1-3)[Gal(a1-3)Gal(b1-3)[Fuc(a1-4)]GlcNAc(b1-2)Man(a1-6)]Man(b1-4)GlcNAc(b1-4)GlcNAc
# Method in brief: as §1
# Gal(a1-3)Gal(b1-4)Glc = target: Gal(a1-3)Gal(b1-4)Glc
# Method in brief: as §1
# Gal(a1-3)Gal(b1-4)GlcNAc = target: Gal(a1-3)Gal(b1-4)GlcNAc
# Method in brief: as §1
binder,measurement,setting,value
PX9896A-bth-573-26-573 (Bacteroides thetaiotaomicron) (protein) ETNNLKTKEDMYKYFGTSKSMLTHVYSYMPQGYQLFATSGGIFTEDRYSMRDCASDDGEFGAYADNIQNTNNGNWSPIKTYDDSWTLYRGIRAANSFIAEIAQVDFTRYEHDGQYTNWMKQLKYFPYEARVLRAHYFFELARRYGDIAMPLEVLTEEEANTIGKTPFSEVISFIVSECDDAANNLPDSYVNEPGAEIGRVTKGFAMAVKSKALLYAASKLHNPSMDTELWKKSAKAAIDIINTGLYSLDPQESANNLDSKEVVLMRINGDDSDFEMFNLPLRMTAGTRTSSLIPYSNYPSQNLVDAFETVNGYKVTLENTGWVCEDPAFDPQSPYENRDKRFYRAILANGMSFKDYTIETFKGGADDGIVSQGGSPTGYFLRKYIQEATSFEPGKEAVSKHHWVIYRYAETLLTYAESMVNAFNDVNYTDETYKYSALWAINEVRKNADMPLIPSMGKDEFMERLYNEWRVEFAFEDHRFWDVRRWKIADTTQRELYGVKIEKQADGTFNFYKNLYETRNWRDCMYLYPIPQSELYKNTNLNPQNTGW,glycan array binding signal (z-score),Fuc(a1-3)GlcNAc,0.483
same,glycan array binding signal (z-score),[1],0.816
same,glycan array binding signal (z-score),[2],-0.224
same,glycan array binding signal (z-score),[3],-0.696
same,glycan array binding signal (z-score),[4],0.505
same,glycan array binding signal (z-score),[5],-0.154
same,glycan array binding signal (z-score),[6],-0.382
same,glycan array binding signal (z-score),[7],0.526
same,glycan array binding signal (z-score),[8],-0.108
same,glycan array binding signal (z-score),[9],0.47
same,glycan array binding signal (z-score),[10],1.4
same,glycan array binding signal (z-score),[11],-0.822
same,glycan array binding signal (z-score),[12],-0.05
same,glycan array binding signal (z-score),[13],-0.662
same,glycan array binding signal (z-score),[14],-0.437
same,glycan array binding signal (z-score),[15],8.17
same,glycan array binding signal (z-score),[16],0.041
same,glycan array binding signal (z-score),[17],-0.499
same,glycan array binding signal (z-score),Fuc(a1-4)GlcNAc,0.243
same,glycan array binding signal (z-score),Fuc(b1-3)GlcNAc,-0.625
same,glycan array binding signal (z-score),Gal(a1-2)Gal,-0.959
same,glycan array binding signal (z-score),Gal(a1-3)Gal,-0.569
same,glycan array binding signal (z-score),Gal(a1-3)Gal(b1-3)GlcNAc,0.457
same,glycan array binding signal (z-score),[18],-0.263
same,glycan array binding signal (z-score),[19],0.292
same,glycan array binding signal (z-score),[20],0.176
same,glycan array binding signal (z-score),[21],0.214
same,glycan array binding signal (z-score),[22],-0.543
same,glycan array binding signal (z-score),Gal(a1-3)Gal(b1-4)Glc,-0.237
same,glycan array binding signal (z-score),Gal(a1-3)Gal(b1-4)GlcNAc,-0.395
